Measured values taken from PubChem BioAssay AID463173 (ICCB-Longwood Screening Facility, Harvard Medical School, 2010).
Screen size: about 52,000 compounds; about 1,700 (3.3%) were called active. Cut-off read from the data, not from the text of the source: active = survival mostly below about 52% (no sharp cut-off); inactive = mostly above about 56%. Some of the results follow.

Test system: Wild type
Experiment: S. aureus survival, RN4220 and DeltatarO strains – OD600, teichoic acid synthesis inhibitors, primary screen (AID 463173)
Conditions: S. aureus RN4220 wild type/DeltatarO growth, OD600, 18 h, active compounds read low, screened at 18.75 µg/mL (by protocol)

Question: `Cc1cc(N2CCOCC2)cc(C)[n+]1[O-]` was tested. Which survival did it give?
Answer: The survival was inactive: 96%.

Question: For `C#CCN1C(=O)C2C(C(=O)NC)C3C=CC2(O3)C1C(=O)NCc1ccc(OC)cc1` (configuration not stated), which survival is on record?
Answer: Its survival is inactive: 107%.

Question: Which survival does the source give for `COc1ccc(CNC(=O)c2cnc3cc(C)ccn3c2=O)cc1` here?
Answer: The survival was inactive: 85%.

Question: Which survival does the source give for `CCCCN(CC)C(=O)Cn1nc(C)c2c(C)n(-c3ccccc3)nc2c1=O` here?
Answer: Its survival is inactive: 78%.

Question: `Nc1nnc(C2CCCC2)s1` was tested. Which survival did it give?
Answer: Its survival is inactive: 110%.

Question: `CCOC(=O)c1c(C)oc2nc(C)nc(NCc3cccc(OC)c3)c12` was tested. Which survival did it give?
Answer: Its survival is inactive: 59%.

Question: Which survival does the source give for `CCOCN(C(=O)CSc1nc2ccccc2[nH]1)c1c(C)cccc1CC` here?
Answer: The survival was inactive: 127%.

Question: With `Cc1cc2c(C)nc3ccc(C(=O)O)cc3c2o1` as the compound, how does the survival read?
Answer: The survival was inactive: 111%.

Question: `COc1ccccc1CNC(=O)CCCn1c(=O)c2ccccc2n(Cc2ccccc2F)c1=O` was tested. Which survival did it give?
Answer: Its survival is inactive: 134%.

Question: `Cc1ccc(N2CC(C(=O)Nc3ccc(Cl)cc3Cl)CC2=O)cc1` (configuration not stated) was tested. Which survival did it give?
Answer: The survival was inactive: 82%.

Question: `Cc1cccc(Cn2c(SCc3ccc(C(=O)NC4CCCCC4)cc3)nc3cccnc32)c1` was tested. Which survival did it give?
Answer: The survival was inactive: 75%.

Question: For `CCOC(=O)c1cc(OC(=O)c2ccc(OC)c(OC)c2)n(-c2ccccc2)n1`, which survival is on record?
Answer: The survival was inactive: 73%.

Question: Which survival does the source give for `C/C(=N/NC(=O)C(F)(F)F)c1cccs1` here?
Answer: The survival was inactive: 94%.

Question: With `CCn1c(=O)cc(SCC(=O)N2CCN(c3cc(C)ccc3C)CC2)c2ccccc21` as the compound, how does the survival read?
Answer: Its survival is inactive: 36%.

Question: Which survival does the source give for `COc1ccccc1NC(=O)CCNS(=O)(=O)c1ccc2c(c1)CCCC(=O)N2` here?
Answer: The survival was inactive: 72%.

Question: Which survival does the source give for `CCOc1ccccc1CNC(=O)c1cnc2sc(N3CCC(C)CC3)nn2c1=O` here?
Answer: The survival was inactive: 85%.

Question: How did the survival turn out when `O=C(CSc1nnc(-c2ccccc2)o1)N1CCCc2ccccc21` was run?
Answer: The survival was inactive: 68%.

Question: With `Cc1nn(C(C)C(=O)NCc2cccc(F)c2)c(=O)c2c1sc1ccccc12` (configuration not stated) as the compound, how does the survival read?
Answer: The survival was inactive: 75%.

Question: For `CCc1ccc(-c2csc(-c3cc4cc(Br)ccc4oc3=O)n2)cc1`, which survival is on record?
Answer: The survival was inactive: 128%.

Question: How did the survival turn out when `COc1ccc(C(=O)Nc2nnc(S(=O)(=O)N3CCOCC3)s2)cc1` was run?
Answer: The survival was inactive: 107%.

Question: With `O=C1CCCc2c1cc(C(=O)Nc1ccc(Cl)cn1)c(=O)n2-c1ccccc1` as the compound, how does the survival read?
Answer: Its survival is inactive: 110%.

Question: `CCN(CC)C(=O)Cn1cc(SCC(=O)Nc2ccc(C)cc2)c2ccccc21` was tested. Which survival did it give?
Answer: The survival was inactive: 90%.

Question: With `CCOC(=O)N1CCc2c(sc3c2c(=O)n(-c2ccc(Cl)cc2)c(=O)n3CC(=O)Nc2ccccc2)C1` as the compound, how does the survival read?
Answer: Its survival is inactive: 81%.

Question: Which survival does the source give for `Cc1ccc(C)c(N2CCN(C(=O)Cn3nc(Cc4cccnc4)c4ccccc4c3=O)CC2)c1` here?
Answer: Its survival is inactive: 83%.

Question: `COc1ccc(C)cc1NC(=O)C(NS(=O)(=O)c1cccc2nsnc12)c1ccccc1` (configuration not stated) was tested. Which survival did it give?
Answer: Its survival is inactive: 64%.

Question: How did the survival turn out when `Cc1cccc(CNC(=O)C2CCN(c3nc4ccc(Cl)cc4[nH]3)CC2)c1` was run?
Answer: The survival was inactive: 79%.

Question: For `CCCC1(C(=O)OCC)NC(c2ccc(N(C)C)cc2)C2C(=O)N(c3ccc(OCC)cc3)C(=O)C21` (configuration not stated), which survival is on record?
Answer: Its survival is inactive: 108%.

Question: How did the survival turn out when `COc1ccc(CN(CC(=O)NC2CCCC2)C(=O)Cn2nnc(-c3ccc(OC)cc3)n2)cc1` was run?
Answer: Its survival is inactive: 116%.

Question: How did the survival turn out when `Cc1cc(C)c2c(C)c(C(=O)N3CCC(c4nc5ccccc5s4)CC3)oc2c1` was run?
Answer: The survival was inactive: 67%.

Question: With `COc1ccc(C2Nc3ccccc3-c3nnc(SC)nc3O2)cc1C` (configuration not stated) as the compound, how does the survival read?
Answer: The survival was inactive: 69%.

Question: With `COc1cc(C2c3c(oc4ccc(C)cc4c3=O)C(=O)N2Cc2ccc(F)cc2)ccc1O` (configuration not stated) as the compound, how does the survival read?
Answer: The survival was inactive: 83%.

Question: For `Cc1nc2c3ccccc3nc(NNC(=O)CCC(=O)N3CCN(c4ccccc4F)CC3)n2n1`, which survival is on record?
Answer: The survival was inactive: 85%.

Question: `Cc1ccc(NC(=O)CCC(=O)N2CCOc3ccccc32)c(Cl)c1` was tested. Which survival did it give?
Answer: Its survival is inactive: 78%.

Question: With `Cc1ccc(C(=O)Nc2ccccc2F)cc1S(=O)(=O)N1CCOCC1` as the compound, how does the survival read?
Answer: Its survival is inactive: 74%.

Question: How did the survival turn out when `c1cc2c(cc1CNC1CCCC1)OCO2` was run?
Answer: The survival was inactive: 104%.

Question: `N#Cc1ccccc1NC(=O)C(=O)NCC(c1ccc2c(c1)OCO2)N1CCN(c2ccccc2)CC1` (configuration not stated) was tested. Which survival did it give?
Answer: The survival was inactive: 132%.

Question: How did the survival turn out when `Cc1nc2cccnc2n1-c1cccc(C(=O)NCCc2ccc(Cl)cc2)c1` was run?
Answer: The survival was inactive: 73%.

Question: With `CCC(=O)Nc1ccc(-c2nc3c(C)cccc3c(=O)o2)cc1` as the compound, how does the survival read?
Answer: Its survival is inactive: 96%.

Question: `Cc1c(C(=O)Nc2ccc(Br)cc2F)sc2ncnc(N(C)C3CCCCC3)c12` was tested. Which survival did it give?
Answer: The survival was inactive: 75%.

Question: For `COc1cc(CN2CCc3nc(N4CCN(c5ccccc5F)CC4)ncc3C2)ccc1OC(C)C`, which survival is on record?
Answer: Its survival is inactive: 133%.

Question: `CCC(=O)N1CCCc2cc(S(=O)(=O)Nc3ccc(C)c(C)c3)ccc21` was tested. Which survival did it give?
Answer: The survival was inactive: 73%.

Question: How did the survival turn out when `CCCCN(CC)C(=O)Cn1c(=O)n(-c2ccc(OCC)cc2)c(=O)c2c3c(sc21)CCCC3` was run?
Answer: The survival was inactive: 97%.

Question: Which survival does the source give for `O=C(Nc1ccc2nc(SCC(=O)N3CCCc4ccccc43)sc2c1)c1ccc(F)cc1` here?
Answer: Its survival is inactive: 84%.

Question: For `CCOC(=O)c1c(C)[nH]c(C)c1S(=O)(=O)NCC(=O)N(C)c1ccc(C)c(C)c1`, which survival is on record?
Answer: Its survival is inactive: 136%.

Question: Which survival does the source give for `O=C(Nc1c(C(=O)c2ccccc2)oc2ccccc12)c1cc(=O)c2ccccc2o1` here?
Answer: Its survival is inactive: 86%.

Question: For `Cn1cnc(S(=O)(=O)N2CCC(C(=O)N3CCN(c4cccc(C(F)(F)F)c4)CC3)CC2)c1`, which survival is on record?
Answer: Its survival is inactive: 124%.

Question: How did the survival turn out when `Cc1ccc(S(=O)(=O)CCc2nnc(NC(=O)C3CCCN3C(=O)NC3CCCCC3)s2)cc1` (configuration not stated) was run?
Answer: The survival was inactive: 111%.

Question: `Cn1cccc1C(C(=O)NC1CCCCC1)N(C(=O)Cc1cccs1)c1ccccc1` (configuration not stated) was tested. Which survival did it give?
Answer: Its survival is inactive: 112%.

Question: How did the survival turn out when `CN(CCC#N)C(=O)C1CCN(S(=O)(=O)c2ccc(-n3cnnn3)cc2)CC1` was run?
Answer: Its survival is inactive: 100%.

Question: `CC(C)(C)c1ccc(NC(=O)CSc2nnc3scc(-c4ccccc4)n23)cc1` was tested. Which survival did it give?
Answer: Its survival is inactive: 60%.

Question: `CSc1ncc(C(=O)Nc2ccccc2C(=O)c2ccccc2)c(C)n1` was tested. Which survival did it give?
Answer: The survival was inactive: 75%.

Question: How did the survival turn out when `CCOC(=O)c1cnc2c(OC)cccc2c1Nc1cccc(O)c1` was run?
Answer: The survival was inactive: 73%.

Question: For `CC(C)CCn1c(Br)nc2c1c(=O)n(Cc1ccccc1)c(=O)n2C`, which survival is on record?
Answer: The survival was inactive: 103%.

Question: Which survival does the source give for `COc1ccc(NC(=O)CSc2nc(-c3ccccc3)nc3cc(=O)[nH]n23)cc1` here?
Answer: The survival was inactive: 73%.

Question: With `COc1ccc(Cn2c(SCc3ccc(C(=O)NCCc4ccccc4)cc3)nc3cccnc32)cc1` as the compound, how does the survival read?
Answer: The survival was inactive: 77%.

Question: `Cn1c(=O)n(C/C=C/c2ccccc2)c(=O)c2c1nc1n2CCN1c1ccc(Cl)cc1` was tested. Which survival did it give?
Answer: The survival was inactive: 85%.

Question: `CCN(CC)c1nn2c(=O)c(C(=O)NCc3cccc(C)c3)cnc2s1` was tested. Which survival did it give?
Answer: Its survival is inactive: 71%.
